Out of some 350,000 compounds screened, about 9,900 (2.8%) were called active. This list was built around the results that the source calls inconclusive (neither active nor inactive); the mix of calls is not that of the screen. The call rests on the fitted dose curve; in most records, active means well fitted activation curve with a large enough effect; inconclusive means small, poorly fitted or top-dose-only effect; inactive means no such curve, though single readings can be large or run the other way. No potency is given beside an inconclusive call; the fits are too rough.
assay: A quantitative high throughput screen for small molecules that induce DNA re-replication in MCF 10a normal breast cells.; further: nearly all actives have a fitted effect of over 50% in size; on activity, positive = re-replication: % of control where 0% means no effect; settings: MCF 10A DNA re-replication, Hoechst nuclear intensity, 48 h; activity, positive = re-replication: at 46.1 µM (top of the series)
Potency means the concentration at half of the fitted maximal effect; tags describe the fitted curve by direction and shape.

Structure (SMILES)	Potency	activity, positive = re-replication
O=C(Nc1cccc(-n2cnnn2)c1)c1cccs1	inconclusive [activator, single point]	
CC[C@@]1(C(=O)OC)N[C@H](CN(C)C(=O)c2ccc(C(C)(C)C)cc2)[C@@H]2C(=O)N(Cc3ccccc3)C(=O)[C@@H]21		inactive: -12.3%
Cc1ccccc1C1c2[nH]c3ccccc3c2CCN1Cc1cccn1-c1ncccn1 (stereo not drawn)	inconclusive [activator, single point]	
COCc1c(C(=O)OCC(=O)N2c3ccccc3NC(=O)C2(C)C)oc2ccccc12	inconclusive [activator, partial curve, poor fit]	
CCOc1ccc(NC(=O)CCN2C(=O)CSc3ccccc32)cc1	inconclusive [activator, single point]	
O=C(c1ccco1)N1CCN(Cc2c(Cl)cccc2Cl)CC1	inconclusive [activator, single point]	
CC(/C=N/NC(=O)CSc1ccccn1)=C\c1ccc(C(C)C)cc1	inconclusive [activator, single point]	
N#Cc1ccc(NC(=O)c2cc(-c3cccs3)on2)cc1	inconclusive [activator, partial curve, poor fit]	
O=C(Cc1cccs1)N1CCCC(c2nc(-c3ccc(S(=O)(=O)N4CCCC4)cc3)no2)C1 (stereo not drawn)	inconclusive [activator, full curve, poor fit]	
O=C(NCC1CCCO1)c1c(O)nc2sccn2c1=O (stereo not drawn)		inactive: -18%
COc1ccc(N2CCN(c3oc(-c4ccccc4OC)nc3C#N)CC2)cc1	inconclusive [activator, single point]	
O=C(CCNc1ccc(Cc2ccncc2)cc1)c1ccc([N+](=O)[O-])cc1	inconclusive [activator, single point]	
CCSc1nc2sc3c(c2c(=O)[nH]1)CCc1ccccc1-3	inconclusive [activator, partial curve, poor fit]	
O=C(Cc1ccc(-c2ccccc2)cc1)NNC(=S)NCc1ccco1	inconclusive [activator, partial curve, poor fit]	
Cn1c(=O)[nH]c(=O)c2c1nc(Br)n2Cc1cccc(Br)c1	inconclusive [activator, full curve, poor fit]	
O=[N+]([O-])c1ccc(S(=O)(=O)Nc2nc3ccccc3nc2Nc2ccccc2)cc1		inactive: 9.71%
Cc1onc(-c2c(F)cccc2Cl)c1C(=O)NC1CCCCCC1	inconclusive [activator, partial curve, poor fit]	
C[C@@H](C(=O)NCc1ccccc1)[C@H]1C[C@]1(C)[C@H](NC(=O)OCc1ccccc1)c1ccccc1	inconclusive [activator, single point]	
c1ccc(-c2[nH]ncc2CN2CCc3ccccc3C2)cc1	inconclusive [activator, single point]	
Oc1ccccc1C(=S)N1CCN(C(=S)c2ccccc2O)CC1		inactive: 0.464%
O=C(CC(O)CCc1ccccc1)c1ccc(O)cc1 (stereo not drawn)		inactive: 0.143%
COCCN1CC(C(=O)NCc2ccccc2-n2ccnc2C)CCC1=O (stereo not drawn)		inactive: 0.788%
CCOc1ccc(N(CC(=O)Nc2ccc(C)c(Cl)c2)S(C)(=O)=O)cc1	inconclusive [activator, full curve, poor fit]	

Structure (SMILES)	Potency	activity, positive = re-replication
O=C1C2C3C=CC(C3)C2C(=O)N1CCN1CCN(S(=O)(=O)/C=C/c2ccccc2)CC1 (stereo not drawn)	inconclusive [activator, single point]	
O=C(NCC(=O)N1CCN(c2ccccc2)CC1)c1ccco1	inconclusive [activator, single point]	
COc1ccc(OC)c(C2NC(=O)N(C)C(C)=C2C(=O)OCc2ccccc2)c1 (stereo not drawn)		inactive: 16.1%
O=C(CCl)N(Cc1cc(=O)[nH]c2ccccc12)c1ccccc1	inconclusive [activator, single point]	
Cc1ccc(-c2[nH]ncc2/C=N/n2c(COc3ccccc3C)nc3ccccc3c2=O)cc1	active: 5.8 µM	
COc1ccc(NC(=O)CNS(=O)(=O)c2cccs2)c(OC)c1	inconclusive [activator, single point]	
N#Cc1nc(COc2ccc(F)cc2)oc1NCCCn1ccnc1		inactive: -6.55%
COc1ccc2c(C(=O)CCl)c[nH]c2c1	inconclusive [activator, single point]	
O=C(N/N=C/c1cccnc1)/C(=C\c1cccs1)NC(=O)c1ccccc1		inactive: -1.4%
Cc1cccc(N2CC(C(=O)O)CC2=O)c1C (stereo not drawn)		inactive: 3.63%
Oc1cccc(/C=N/NC(=S)NCCN2CCOCC2)c1O		inactive: 1.18%
O=C(N/N=C1/C(=O)c2cccc3cccc1c23)c1ccc(Cl)cc1	inconclusive [activator, partial curve, poor fit]	
CSc1cccc(CN2CCN(Cc3ccc(F)c(F)c3)C(CCO)C2)c1 (stereo not drawn)		inactive: -2.71%
CC(C)(C)c1ccc2c(c1)OC(C(=O)N/N=C\c1ccccn1)CO2 (stereo not drawn)	inconclusive [activator, partial curve, poor fit]	
CCCCn1nc(NC(=O)CCC)c2cc3cc(OC)ccc3nc21	inconclusive [activator, single point]	
O=C(COc1ccccc1)Nc1nc(-c2ccc(S(=O)(=O)N3CCOCC3)cc2)cs1	inconclusive [activator, partial curve]	
Cc1cc2n(n1)C(c1ccc(N(C)C)cc1)Nc1ccccc1-2 (stereo not drawn)	active: 20.6 µM	
CC(C)C1CC(CCN)(Cc2ccccc2)CCO1 (stereo not drawn)	inconclusive [activator, partial curve, poor fit]	
Cc1ccccc1NC(=S)c1nc2ccccc2[nH]1	inconclusive [activator, partial curve, poor fit]	
COCCCN1C(=O)CC(C(=O)OC)=C1C	inconclusive [activator, single point]	
COc1ccccc1-c1nnc(NC(=O)OCC(C)C)s1	inconclusive [activator, partial curve, poor fit]	
Cc1ccc(NC(=O)CN(C)S(=O)(=O)c2ccc(Br)s2)cc1F		inconclusive: 97.1% [activator]
CCOC(=O)NN=C1CCC(c2ccccc2)CC1 (stereo not drawn)		inconclusive: -29.4% [activator]

Structure (SMILES)	Potency	activity, positive = re-replication
Cc1ccc2c(c1)C(=O)C(=O)N2CC1COc2ccccc2O1 (stereo not drawn)	inconclusive [activator, single point]	
CCOC(=O)CON1C(=O)C(C)(C)N(OCC(=O)OCC)C(=O)C1(C)C	inconclusive [activator, full curve]	
COc1cc(C)ccc1S(=O)(=O)N1CCN(C23CC4CC(CC(C4)C2)C3)CC1	inconclusive [activator, single point]	
COc1ccc(NC(=O)CSc2nc3c(sc4ccccc43)c(=O)n2CCCN2CCCC2)cc1	inconclusive [activator, single point]	
Oc1ccc(N=Cc2ccc(-c3cccs3)s2)cc1	inconclusive [activator, single point]	
COc1ccc(P(=O)(COc2ccc([N+](=O)[O-])cc2)c2ccc(OC)cc2)cc1		inactive: 8.17%
CCOc1ccc(NC(=O)C(CC(=O)O)Cc2ccc(C)cc2)cc1 (stereo not drawn)	inconclusive [activator, single point]	
CCOC(=O)c1sc(NC(=O)CSc2n[nH]c(-c3ccncc3)n2)c(C#N)c1C		inactive: 24%
CC(C)CN=C(NS(=O)(=O)c1ccccc1)C(Cl)(Cl)Cl	active: 2.91 µM	
CCN1C(=O)c2cccc3c(S(=O)(=O)N(C(C)=O)c4ccc(OC(C)=O)cc4)ccc1c23	inconclusive [activator, partial curve, poor fit]	
COc1ccc(CNC(=O)C(c2ccccc2F)N(C(=O)c2csnn2)C2CC2)cc1 (stereo not drawn)	inconclusive [activator, single point]	
O=C(CNCCC1=CCCCC1)Nc1ccccc1N1CCCCC1	inconclusive [activator, partial curve, poor fit]	
COc1ccc(-n2cc(CNCCc3cscn3)c(-c3ccccc3Cl)n2)cc1		inactive: 7.44%
COc1ccc(CNC(=O)C2CCN(c3cc(C(=O)Nc4cccc(OC)c4)ccn3)CC2)cc1	inconclusive [activator, single point]	
CC1(CCc2ccccc2)NC(=O)N(CC(=O)O)C1=O (stereo not drawn)		inactive: 21.2%
CCc1ccc(NC(=O)CSc2nc(=O)n3cc(C)ccc3n2)cc1	inconclusive [activator, partial curve, poor fit]	
CSc1nc(C)cc(SCC(=O)Nc2ccc(Cl)cc2Cl)n1	inconclusive [activator, partial curve, poor fit]	
CCC1CN(C(=O)Nc2ccc(C)cc2)c2cc(C)ccc2O1 (stereo not drawn)	inconclusive [activator, single point]	
COc1ccc(C2=Nn3c(nnc3-c3ccccc3Cl)SC2)cc1OC1CCCC1	active: 16.4 µM	
Cc1nc2scc(C)n2c(=O)c1S(=O)(=O)NCc1ccc(F)cc1		inactive: 0.079%
O=C(Nc1ccccc1N1CCCCC1)c1ccccc1F	inconclusive [activator, single point]	
Cc1cccc(Nc2nc(N)c([N+](=O)[O-])c(N3CCOCC3)n2)c1	inconclusive [activator, partial curve, poor fit]	
